Laboratory results taken from the supplement of paper PMC3334620.
The full ranking holds about 33,000 sequences; the median of “E-score (-0.5 to 0.5)” is about -0.056, and the highest 2% start at about 0.38. Some of the results follow.

These sequences were tested against Stb4 (UniProt P50104) (assay: PBM E-score (8-mer binding enrichment) (E-score (-0.5 to 0.5)); higher = stronger / more preferred TF binding; most listed sequences are background and not binding sites). Conditions: protein concentration: 200 nM; construct: GST-DNA-binding domain.
In short: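 Bound GST-tagged yeast transcription factors, applied at about 100-200 nM to double-stranded universal all-10-mer Agilent arrays, were detected with fluorescent anti-GST. Scans were normalised with masliner. A modified Wilcoxon-Mann-Whitney statistic, the E-score, was assigned to each ungapped eight-base word pooled with its reverse complement by the Universal PBM Analysis Suite.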

Row | Sequence | PBM E-score
1 | ACACATTG | 0.0142
2 | ACGAACAT | 0.0333
3 | CGCTGTAA | -0.0623
4 | ATTTTCGG | 0.423
5 | ATTGACTG | -0.182
6 | TTATACAA | 0.0885
7 | CATCTCCA | -0.152
8 | CCGGGACG | 0.28
9 | ACTCCCAT | -0.304
10 | GGCCTCCC | 0.113
11 | CTTCTGGA | 0.0106
12 | AGAATTCA | -0.181
13 | ACTGCAGT | -0.318
14 | AGGGCCAG | -0.297
15 | TGCTTCCA | -0.323
16 | TGGGAGAA | -0.223
17 | ACATCCGC | 0.382
18 | ATCAGCCG | 0.314
19 | ACTCCCAG | -0.141
20 | CATCCGAC | 0.455
21 | ACAGGATG | -0.125
22 | ACAGGAGA | -0.0422

Row | Sequence | PBM E-score
23 | GGGATTAA | 0.202
24 | ATAAGGAA | -0.0893
25 | GTCATCTA | -0.0621
26 | AGAAATCT | -0.0766
27 | GACATGCC | 0.00238
28 | GTGTTGCA | -0.099
29 | AGCCCTAC | 0.025
30 | CTATTAAC | -0.0216
31 | CAATAGCG | -0.0639
32 | AGATAGAA | -0.122
33 | ATCAACAG | -0.00627
34 | TAAACCCA | -0.179
35 | CTTATCGA | -0.105
36 | AGCTCCAT | -0.206
37 | GGTATATA | -0.0302
38 | CATGAGGC | -0.0911
39 | GTCTATAA | -0.136
40 | ACACTATA | -0.225
41 | CTCCGTGC | 0.217
42 | ACAGGGAC | -0.0374
43 | GTGAGCAA | -0.125
44 | GCGATGCC | -0.00713

Row | Sequence | PBM E-score
45 | CCCCTCAC | 0.0126
46 | CCTAGGAC | -0.267
47 | GAGTCAGC | -0.135
48 | AGACATGA | -0.271
49 | GGAACTTA | 0.341
50 | GCTTCTGA | -0.00608
51 | ATTCACAC | -0.121
52 | GCTACGCA | 0.128
53 | AAGAGCGT | -0.0886
54 | AAGATAGG | -0.308
55 | AAGGCCCG | 0.15
56 | ATTGGGGC | -0.18
57 | AGCATATG | -0.297
58 | ACAAATCG | -0.057
59 | AGTTTCAT | -0.0839
60 | ACGCAAAA | -0.164
61 | CCCCTACA | -0.252
62 | GCAGCATA | -0.192
63 | CCACCGCA | -0.0223
64 | TACATTCA | -0.181
65 | CCTTCCGA | 0.451
66 | GGTTTTAC | -0.00413

Row | Sequence | PBM E-score
67 | CCCGCGCA | 0.117
68 | TGACGACA | -0.0613
69 | TACAGACA | -0.183
70 | AAGGAAGT | 0.119
71 | ATCTTGTG | -0.185
72 | CCCCGGCC | 0.17
73 | CATAACCG | 0.251
74 | CGCCTCGA | -0.14
75 | ATCCTCAG | -0.192
76 | AACAAAGC | -0.0234
77 | CCGCCGCC | 0.157
78 | AATTGGAG | -0.273
79 | GCAAGCAA | -0.128
80 | CATGCGAC | -0.126
81 | CAAATTTA | -0.0517
82 | ACTCGTCC | -0.00859
83 | GAGCACAA | 0.118
84 | GCACTGGC | -0.224
85 | AACGGTAG | -0.0634
86 | ATGCTTAC | -0.188
87 | GATCGTGC | -0.0855
88 | CTTCGAAG | -0.305
